Key:
Assay in all cases: SPR (Biacore 4000), captured on anti-human Fc, 200 nM ligand injected, 37 C
hBMP6 = target: T1, hBMP6 (human, UniProt P22004 382-513, limits assumed)
T1 construct: Bought protein
T1 sequence (looked up): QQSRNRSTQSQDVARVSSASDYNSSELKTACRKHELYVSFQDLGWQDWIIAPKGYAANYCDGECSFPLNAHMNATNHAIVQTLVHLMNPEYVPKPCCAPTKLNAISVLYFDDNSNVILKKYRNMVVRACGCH
Method: (§1) For the binding experiment, a Biacore 4000 instrument was used. […] All Biacore binding studies were performed in HBS-T running buffer (0.01 M HEPES pH 7.4, 0.5 M NaCl, 3 mM EDTA, 0.5 mg/ml bovine serum albumin, 0.05% v/v Surfactant P20). […] All binding measurements were performed at 37° C. […] Over the captured antibody surface was injected the TGF-beta family ligands through concentrations ranging from 3.1 nM to 200 nM.

Activin B = target: T2, Activin B (human, UniProt P09529 293-407)
T2 construct: Homodimer of two betaB subunits; bought (R&D Systems #659-AB)
T2 chain: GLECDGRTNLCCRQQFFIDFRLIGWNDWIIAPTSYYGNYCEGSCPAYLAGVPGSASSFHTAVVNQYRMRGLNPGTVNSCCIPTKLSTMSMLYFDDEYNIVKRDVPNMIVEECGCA
Method: as §1

GDF8 = target: T3, GDF8 (human, UniProt O14793 267-375)
T3 construct: Bought (R&D Systems #788-G8); also called hGDF8; growth and differentiation factor-8
Method: as §1

Activin AB = target: T4, Activin AB (human, UniProt P08476 311-426; P09529 293-407)
T4 construct: Heterodimer of one betaA and one betaB subunit; bought (R&D Systems #1006-AB-005 / #1066-AB)
T4 chain 1: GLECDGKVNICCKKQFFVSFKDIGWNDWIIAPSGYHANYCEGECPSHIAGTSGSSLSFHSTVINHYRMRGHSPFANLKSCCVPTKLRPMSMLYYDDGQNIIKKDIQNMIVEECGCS
T4 chain 2: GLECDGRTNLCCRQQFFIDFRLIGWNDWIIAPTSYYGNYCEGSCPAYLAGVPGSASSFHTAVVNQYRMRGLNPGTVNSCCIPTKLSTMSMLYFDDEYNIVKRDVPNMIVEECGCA
Method: as §1

hBMP7 = target: T5, hBMP7 (human, UniProt P18075 293-431)
T5 construct: Bought protein
T5 sequence (looked up): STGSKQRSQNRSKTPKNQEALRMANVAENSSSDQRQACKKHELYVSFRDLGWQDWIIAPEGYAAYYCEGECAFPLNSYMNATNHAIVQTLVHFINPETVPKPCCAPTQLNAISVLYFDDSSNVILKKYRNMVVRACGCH
Method: as §1

hBMP4 = target: T6, hBMP4 (human, UniProt P12644 293-408)
T6 construct: Bought protein
T6 sequence (looked up): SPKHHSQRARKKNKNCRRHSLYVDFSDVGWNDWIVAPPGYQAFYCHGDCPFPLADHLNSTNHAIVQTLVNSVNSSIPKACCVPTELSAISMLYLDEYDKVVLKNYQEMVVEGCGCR
Method: as §1

Activin AC = target: T7, Activin AC (human, UniProt P55103 237-352)
T7 construct: Heterodimer of one betaA and one betaC subunit; bought (R&D Systems #4879-AC)
T7 sequence 1: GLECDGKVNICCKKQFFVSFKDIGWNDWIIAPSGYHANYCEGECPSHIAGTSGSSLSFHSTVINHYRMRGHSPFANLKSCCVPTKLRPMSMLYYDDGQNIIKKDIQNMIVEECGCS
T7 sequence 2: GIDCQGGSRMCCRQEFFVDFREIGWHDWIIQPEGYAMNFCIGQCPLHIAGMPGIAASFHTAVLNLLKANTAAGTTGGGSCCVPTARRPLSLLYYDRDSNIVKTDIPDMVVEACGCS
Method: as §1

Activin A = target: T8, Activin A (human, UniProt P08476 311-426)
T8 construct: Homodimer of two betaA subunits; bought (R&D Systems #338-AC); also called inhibin-betaA dimer
T8 sequence: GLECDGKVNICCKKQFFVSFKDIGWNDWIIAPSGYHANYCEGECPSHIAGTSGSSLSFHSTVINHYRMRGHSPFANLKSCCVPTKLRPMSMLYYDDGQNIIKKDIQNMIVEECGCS
Method: as §1

hBMP10 = target: T9, hBMP10 (human, UniProt O95393 317-424)
T9 construct: Bought protein
T9 sequence (looked up): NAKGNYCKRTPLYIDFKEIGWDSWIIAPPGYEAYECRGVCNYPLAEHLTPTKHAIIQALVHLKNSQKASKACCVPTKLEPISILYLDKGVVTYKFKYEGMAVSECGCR
Method: as §1

hBMP2 = target: T10, hBMP2 (human, UniProt P12643 283-396)
T10 construct: Bought protein; also called BPM2
T10 sequence (looked up): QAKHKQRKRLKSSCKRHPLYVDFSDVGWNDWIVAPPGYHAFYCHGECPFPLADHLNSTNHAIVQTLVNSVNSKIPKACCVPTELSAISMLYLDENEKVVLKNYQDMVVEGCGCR
Method: as §1

hBMP9 = target: T11, hBMP9 (human, UniProt Q9UK05 320-429)
T11 construct: Bought protein
T11 sequence (looked up): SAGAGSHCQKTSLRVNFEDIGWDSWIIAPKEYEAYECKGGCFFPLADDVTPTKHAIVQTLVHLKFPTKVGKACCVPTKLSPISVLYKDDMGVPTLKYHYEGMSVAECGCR
Method: as §1

GDF11 = target: T12, GDF11 (human, UniProt O95390 299-407)
Sequence of GDF11 (O95390 299-407 limits assumed): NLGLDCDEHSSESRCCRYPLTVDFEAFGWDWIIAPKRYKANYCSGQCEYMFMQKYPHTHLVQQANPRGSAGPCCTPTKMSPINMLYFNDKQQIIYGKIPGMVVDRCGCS
T12 construct: Bought protein; also called hGDF11
Method: as §1

binding response (resonance units) for 200 nM ligand (hBMP6): 86.3 RU
binding response (resonance units) for 200 nM ligand (Activin B): 68 RU
binding response (resonance units) for 200 nM ligand (GDF8): 25.8 RU
binding response (resonance units) for 200 nM ligand (Activin AB): 59.5 RU
binding response (resonance units) for 200 nM ligand (hBMP7): 64.2 RU
binding response (resonance units) for 200 nM ligand (hBMP4): 26.4 RU
binding response (resonance units) for 200 nM ligand (Activin AC): 59.4 RU
binding response (resonance units) for 200 nM ligand (Activin A): 70.9 RU
binding response (resonance units) for 200 nM ligand (hBMP10): 34.2 RU
binding response (resonance units) for 200 nM ligand (hBMP2): 36.9 RU
binding response (resonance units) for 200 nM ligand (hBMP9): 32.3 RU
binding response (resonance units) for 200 nM ligand (GDF11): 24.2 RU
B1: Control 4 (Activin Type IIB receptor-Fc fusion molecule) (Fc fusion)
chain: EAETRECIYYNANWELERTNQSGLERCEGEQDKRLHCYASWANSSGTIELVKKGCWLDDFNCYDRQECVATEENPQVYFCCCEGNFCNERFTHLPEAGGPEVTYEPPPTAPSG[omitted - human IgG1 Fc]
notes: also called ActR2B-hFc; ActRIIB-hFc
